{"source": "PubChem BioAssay (NCI)", "system": "NCI-H322M lung", "assay": "inhibition of tumour cell growth, NCI panel, 48 h", "note": "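Grown in 96-well plates, cells were treated for 48 hours with each compound at five concentrations. Insufficient inhibition: endpoint recorded as highest concentration tested. At the GI50, growth is halved. Definition used: TGI = concentration required for complete inhibition of growth.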", "data": [{"smiles": "CCOc1ccccc1NC(=O)N/C(N)=N/c1nc2ccccc2s1", "values": [{"measurement": "GI50", "result": 46.6, "unit": "nM"}, {"measurement": "TGI", "result": "> 85900", "unit": "nM"}]}]}
